{
  "source": "the supplement of paper PMC8728848",
  "binders": {"B1": {"name": "AAL (Aleuria aurantia) (protein)", "chain": "MPTEFLYTSKIAAISWAATGGRQQRVYFQDLNGKIREAQRGGDNPWTGGSSQNVIGEAKLFSPLAAVTWKSAQGIQIRVYCVNKDNILSEFVYDGSKWITGQLGSVGVKVGSNSKLAALQWGGSESAPPNIRVYYQKSNGSGSSIHEYVWSGKWTAGASFGSTVPGTGIGATAIGPGRLRIYYQATDNKIREHCWDSNSWYVGGFSASASAGVSIAAISWGSTPQIRVYWQKGREELYEAAYGGSWNTPGQIKDASRPTPSLPDTFIAANSSGNIDISVFFQASGVSLQQWQWISGKGWSIGAVVPTGTPAGW"}},
  "assay_in_all_cases": "glycan array binding signal (z-score within array); higher = stronger binding",
  "conditions_in_all_cases": "glycan notation: IUPAC condensed, linker removed; mutation: N224Q",
  "key": {"[1]": {"molecular_target": "Fuc(a1-3)[Gal(b1-4)]GlcNAc(b1-3)Gal(b1-3)[Fuc(a1-4)]GlcNAc", "procedure,_shortened": "(§1)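 Glycan array data were curated from 3228 arrays in the Consortium for Functional Glycomics database and kept only where the protein sequence was available. Glycan names were converted to IUPAC-condensed notation, and columns mapping to the same glycan were averaged. The binding signal is a within-array Z-score, averaged across arrays of the same protein sequence at different concentrations or buffers and across linkers. Negative Z-scores can be read as non-binding.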"}, "[2]": {"molecular_target": "Fuc(a1-3)[Gal(b1-4)]GlcNAc(b1-3)Gal(b1-4)[Fuc(a1-3)]GlcNAc", "procedure,_shortened": "as §1"}, "[3]": {"molecular_target": "Fuc(a1-3)[Gal(b1-4)]GlcNAc(b1-3)Gal(b1-4)[Fuc(a1-3)]GlcNAc(b1-3)Gal(b1-4)[Fuc(a1-3)]GlcNAc", "procedure,_shortened": "as §1"}, "[4]": {"molecular_target": "Fuc(a1-3)[Gal(b1-4)]GlcNAc(b1-3)GalNAc", "procedure,_shortened": "as §1"}, "[5]": {"molecular_target": "Fuc(a1-3)[Gal(b1-4)]GlcNAc(b1-6)GalNAc", "procedure,_shortened": "as §1"}, "[6]": {"molecular_target": "Fuc(a1-3)[Gal(b1-4)]GlcNAc(b1-6)[Gal(b1-3)GlcNAc(b1-3)]Gal(b1-4)Glc", "procedure,_shortened": "as §1"}, "[7]": {"molecular_target": "Fuc(a1-3)[Gal(b1-4)]GlcNAc6S", "procedure,_shortened": "as §1"}, "[8]": {"molecular_target": "Fuc(a1-3)[Gal3S(b1-4)]Glc", "procedure,_shortened": "as §1"}, "[9]": {"molecular_target": "Fuc(a1-3)[Gal3S(b1-4)]GlcNAc", "procedure,_shortened": "as §1"}, "[10]": {"molecular_target": "Fuc(a1-3)[Gal3S(b1-4)]GlcNAc6S", "procedure,_shortened": "as §1"}, "[11]": {"molecular_target": "Fuc(a1-3)[GalNAc(b1-4)]GlcNAc", "procedure,_shortened": "as §1"}, "[12]": {"molecular_target": "Fuc(a1-3)[GalNAc(b1-4)]GlcNAc6S", "procedure,_shortened": "as §1"}, "Fuc(a1-4)GlcNAc": {"molecular_target": "Fuc(a1-4)GlcNAc", "procedure,_shortened": "as §1"}, "Fuc(b1-3)GlcNAc": {"molecular_target": "Fuc(b1-3)GlcNAc", "procedure,_shortened": "as §1"}, "Gal(a1-2)Gal": {"molecular_target": "Gal(a1-2)Gal", "procedure,_shortened": "as §1"}, "Gal(a1-3)Gal": {"molecular_target": "Gal(a1-3)Gal", "procedure,_shortened": "as §1"}, "Gal(a1-3)Gal(b1-3)GlcNAc": {"molecular_target": "Gal(a1-3)Gal(b1-3)GlcNAc", "procedure,_shortened": "as §1"}, "[13]": {"molecular_target": "Gal(a1-3)Gal(b1-3)GlcNAc(b1-2)Man", "procedure,_shortened": "as §1"}, "[14]": {"molecular_target": "Gal(a1-3)Gal(b1-3)GlcNAc(b1-2)Man(a1-3)[Gal(a1-3)Gal(b1-3)GlcNAc(b1-2)Man(a1-6)]Man(b1-4)GlcNAc(b1-4)GlcNAc", "procedure,_shortened": "as §1"}, "[15]": {"molecular_target": "Gal(a1-3)Gal(b1-3)GlcNAc(b1-3)GalNAc", "procedure,_shortened": "as §1"}, "[16]": {"molecular_target": "Gal(a1-3)Gal(b1-3)GlcNAc(b1-6)GalNAc", "procedure,_shortened": "as §1"}, "[17]": {"molecular_target": "Gal(a1-3)Gal(b1-3)[Fuc(a1-4)]GlcNAc(b1-2)Man(a1-3)[Gal(a1-3)Gal(b1-3)[Fuc(a1-4)]GlcNAc(b1-2)Man(a1-6)]Man(b1-4)GlcNAc(b1-4)GlcNAc", "procedure,_shortened": "as §1"}, "Gal(a1-3)Gal(b1-4)Glc": {"molecular_target": "Gal(a1-3)Gal(b1-4)Glc", "procedure,_shortened": "as §1"}, "Gal(a1-3)Gal(b1-4)GlcNAc": {"molecular_target": "Gal(a1-3)Gal(b1-4)GlcNAc", "procedure,_shortened": "as §1"}, "[18]": {"molecular_target": "Gal(a1-3)Gal(b1-4)GlcNAc(b1-2)Man", "procedure,_shortened": "as §1"}, "[19]": {"molecular_target": "Gal(a1-3)Gal(b1-4)GlcNAc(b1-2)Man(a1-3)[Gal(a1-3)Gal(b1-4)GlcNAc(b1-2)Man(a1-6)]Man(b1-4)GlcNAc(b1-4)GlcNAc", "procedure,_shortened": "as §1"}, "[20]": {"molecular_target": "Gal(a1-3)Gal(b1-4)GlcNAc(b1-3)GalNAc", "procedure,_shortened": "as §1"}, "[21]": {"molecular_target": "Gal(a1-3)Gal(b1-4)GlcNAc(b1-6)GalNAc", "procedure,_shortened": "as §1"}, "[22]": {"molecular_target": "Gal(a1-3)Gal(b1-4)[Fuc(a1-3)]GlcNAc", "procedure,_shortened": "as §1"}, "[23]": {"molecular_target": "Gal(a1-3)Gal(b1-4)[Fuc(a1-3)]GlcNAc(b1-2)Man(a1-3)[Gal(a1-3)Gal(b1-4)[Fuc(a1-3)]GlcNAc(b1-2)Man(a1-6)]Man(b1-4)GlcNAc(b1-4)GlcNAc", "procedure,_shortened": "as §1"}, "Gal(a1-3)GalNAc": {"molecular_target": "Gal(a1-3)GalNAc", "procedure,_shortened": "as §1"}, "[24]": {"molecular_target": "Gal(a1-3)[Gal(a1-4)]Gal(b1-4)GlcNAc", "procedure,_shortened": "as §1"}, "[25]": {"molecular_target": "Gal(a1-4)Gal(b1-3)GlcNAc(b1-2)Man(a1-3)[Gal(a1-4)Gal(b1-3)GlcNAc(b1-2)Man(a1-6)]Man(b1-4)GlcNAc(b1-4)GlcNAc", "procedure,_shortened": "as §1"}, "Gal(a1-4)Gal(b1-4)Glc": {"molecular_target": "Gal(a1-4)Gal(b1-4)Glc", "procedure,_shortened": "as §1"}, "Gal(a1-4)Gal(b1-4)GlcNAc": {"molecular_target": "Gal(a1-4)Gal(b1-4)GlcNAc", "procedure,_shortened": "as §1"}, "[26]": {"molecular_target": "Gal(a1-4)Gal(b1-4)GlcNAc(b1-2)Man(a1-3)[Gal(a1-4)Gal(b1-4)GlcNAc(b1-2)Man(a1-6)]Man(b1-4)GlcNAc(b1-4)GlcNAc", "procedure,_shortened": "as §1"}, "[27]": {"molecular_target": "Gal(a1-4)Gal(b1-4)GlcNAc(b1-3)Gal(b1-4)Glc", "procedure,_shortened": "as §1"}, "Gal(a1-4)GlcNAc": {"molecular_target": "Gal(a1-4)GlcNAc", "procedure,_shortened": "as §1"}},
  "note": "Some of the results follow.",
  "data": [
    {"binder": "B1", "values": [
      {"measurement": "glycan array binding signal (z-score)", "setting": "[1]", "value": -0.272},
      {"measurement": "glycan array binding signal (z-score)", "setting": "[2]", "value": 1.96},
      {"measurement": "glycan array binding signal (z-score)", "setting": "[3]", "value": 2.66},
      {"measurement": "glycan array binding signal (z-score)", "setting": "[4]", "value": -0.077},
      {"measurement": "glycan array binding signal (z-score)", "setting": "[5]", "value": -0.258},
      {"measurement": "glycan array binding signal (z-score)", "setting": "[6]", "value": 0.019},
      {"measurement": "glycan array binding signal (z-score)", "setting": "[7]", "value": -0.274},
      {"measurement": "glycan array binding signal (z-score)", "setting": "[8]", "value": -0.018},
      {"measurement": "glycan array binding signal (z-score)", "setting": "[9]", "value": 1.04},
      {"measurement": "glycan array binding signal (z-score)", "setting": "[10]", "value": 0.419},
      {"measurement": "glycan array binding signal (z-score)", "setting": "[11]", "value": 1.36},
      {"measurement": "glycan array binding signal (z-score)", "setting": "[12]", "value": 1.03},
      {"measurement": "glycan array binding signal (z-score)", "setting": "Fuc(a1-4)GlcNAc", "value": 6.22},
      {"measurement": "glycan array binding signal (z-score)", "setting": "Fuc(b1-3)GlcNAc", "value": 4.57},
      {"measurement": "glycan array binding signal (z-score)", "setting": "Gal(a1-2)Gal", "value": -0.312},
      {"measurement": "glycan array binding signal (z-score)", "setting": "Gal(a1-3)Gal", "value": -0.314},
      {"measurement": "glycan array binding signal (z-score)", "setting": "Gal(a1-3)Gal(b1-3)GlcNAc", "value": -0.31},
      {"measurement": "glycan array binding signal (z-score)", "setting": "[13]", "value": -0.312},
      {"measurement": "glycan array binding signal (z-score)", "setting": "[14]", "value": -0.268},
      {"measurement": "glycan array binding signal (z-score)", "setting": "[15]", "value": -0.298},
      {"measurement": "glycan array binding signal (z-score)", "setting": "[16]", "value": -0.314},
      {"measurement": "glycan array binding signal (z-score)", "setting": "[17]", "value": -0.209},
      {"measurement": "glycan array binding signal (z-score)", "setting": "Gal(a1-3)Gal(b1-4)Glc", "value": -0.311},
      {"measurement": "glycan array binding signal (z-score)", "setting": "Gal(a1-3)Gal(b1-4)GlcNAc", "value": -0.319},
      {"measurement": "glycan array binding signal (z-score)", "setting": "[18]", "value": -0.294},
      {"measurement": "glycan array binding signal (z-score)", "setting": "[19]", "value": -0.29},
      {"measurement": "glycan array binding signal (z-score)", "setting": "[20]", "value": -0.323},
      {"measurement": "glycan array binding signal (z-score)", "setting": "[21]", "value": -0.265},
      {"measurement": "glycan array binding signal (z-score)", "setting": "[22]", "value": 0.237},
      {"measurement": "glycan array binding signal (z-score)", "setting": "[23]", "value": -0.027},
      {"measurement": "glycan array binding signal (z-score)", "setting": "Gal(a1-3)GalNAc", "value": -0.317},
      {"measurement": "glycan array binding signal (z-score)", "setting": "[24]", "value": -0.309},
      {"measurement": "glycan array binding signal (z-score)", "setting": "[25]", "value": -0.308},
      {"measurement": "glycan array binding signal (z-score)", "setting": "Gal(a1-4)Gal(b1-4)Glc", "value": -0.314},
      {"measurement": "glycan array binding signal (z-score)", "setting": "Gal(a1-4)Gal(b1-4)GlcNAc", "value": -0.315},
      {"measurement": "glycan array binding signal (z-score)", "setting": "[26]", "value": -0.259},
      {"measurement": "glycan array binding signal (z-score)", "setting": "[27]", "value": -0.318},
      {"measurement": "glycan array binding signal (z-score)", "setting": "Gal(a1-4)GlcNAc", "value": -0.313}
    ]}
  ]
}
